The test has as its target T1, TNFR1 (mouse (endogenous in MEFs)) (UniProt P25118).
T1 sequence: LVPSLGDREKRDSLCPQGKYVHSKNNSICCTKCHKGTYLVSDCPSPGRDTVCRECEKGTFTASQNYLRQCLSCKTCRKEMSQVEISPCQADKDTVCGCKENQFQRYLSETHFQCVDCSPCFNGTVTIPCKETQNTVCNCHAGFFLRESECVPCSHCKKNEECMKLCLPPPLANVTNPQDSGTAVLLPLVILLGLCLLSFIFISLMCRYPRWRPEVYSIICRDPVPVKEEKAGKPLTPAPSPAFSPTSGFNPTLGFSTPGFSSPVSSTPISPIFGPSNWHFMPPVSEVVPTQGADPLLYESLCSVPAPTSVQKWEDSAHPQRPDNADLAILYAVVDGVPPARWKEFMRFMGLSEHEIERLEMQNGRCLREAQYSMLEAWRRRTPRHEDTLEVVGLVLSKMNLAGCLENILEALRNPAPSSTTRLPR
The experiment in a line: co-IP; MEFs (WT, PP6 knockout and reconstituted) treated with TNFα 50 ng/ml for indicated times, NP-40 lysis, anti-TNFR1 antibody overnight at 4 °C, Protein G agarose, western blot. In general terms: In western blotting, separated proteins are transferred to a membrane and probed.

Amino acid sequences for entries named in this document (tags omitted). A change or cut given only in a name is not applied to a line headed by its entry.
UniProt Q60680: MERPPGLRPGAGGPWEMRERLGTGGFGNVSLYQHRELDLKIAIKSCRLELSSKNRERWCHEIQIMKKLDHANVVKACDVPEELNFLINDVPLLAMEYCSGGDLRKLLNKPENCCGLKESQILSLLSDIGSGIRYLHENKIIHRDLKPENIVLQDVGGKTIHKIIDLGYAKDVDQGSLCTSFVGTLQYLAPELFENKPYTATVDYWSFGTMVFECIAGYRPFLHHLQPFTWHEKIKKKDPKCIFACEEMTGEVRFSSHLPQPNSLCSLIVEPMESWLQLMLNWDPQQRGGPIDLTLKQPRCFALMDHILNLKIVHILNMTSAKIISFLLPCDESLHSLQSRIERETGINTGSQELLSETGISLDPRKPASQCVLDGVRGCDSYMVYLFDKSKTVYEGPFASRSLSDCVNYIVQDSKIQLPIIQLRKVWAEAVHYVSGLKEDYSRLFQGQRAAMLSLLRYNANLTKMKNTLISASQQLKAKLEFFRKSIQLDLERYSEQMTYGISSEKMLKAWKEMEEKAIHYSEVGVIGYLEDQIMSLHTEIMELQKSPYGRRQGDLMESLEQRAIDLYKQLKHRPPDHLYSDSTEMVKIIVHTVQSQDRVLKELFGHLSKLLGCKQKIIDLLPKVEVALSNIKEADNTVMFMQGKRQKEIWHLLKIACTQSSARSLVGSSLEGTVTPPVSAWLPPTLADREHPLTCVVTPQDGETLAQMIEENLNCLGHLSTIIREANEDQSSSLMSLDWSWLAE

Results are given in words; binding and its absence hold for the method and conditions named. In cells and extracts the contact can be indirect. Some entries that bind do so weakly or less than the wild type.

“IKKα/β (from UniProt Q60680 1-745; O88351 1-757) (complex)”: the binding entry is recorded as “binds”.

The values above are taken from article PMC9452587.
